Assay results as given in PubChem BioAssay AID504706 (National Center for Advancing Translational Sciences (NCATS), 2011).
The campaign covered roughly 320,000 compounds. About 200 (0.062%) were called active. Inconclusive results, whose numbers are uncertain, are shown with a selection of clear calls. Calls follow the shape of the dose curve; as a rule, active = well fitted activation curve with a large enough effect; inconclusive = small, poorly fitted or top-dose-only effect; inactive = no such curve, though single readings can be large or run the other way. No potency is given beside an inconclusive call; the fits are too rough.

Assay: qHTS assay for re-activators of p53 using a Luc reporter; also: nearly all actives have a fitted effect of over 45% in size
Conditions: H1299 p53-A138V BP100-luciferase reporter, luminescence, 24 h; series mostly up to 92.2 µM
Outline: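 H1299 (p53-null), stable ts p53-A138V + BP100-Luc; 1000 cells/well, Opti-MEM/10% FBS; cpd 4 pt, 1:5; 24 h, 37 deg C, 5% CO2; detection reagent 10 min RT; luminescence.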
Potency is read from the fitted curve at half-maximal effect; tags tell the direction and shape of the fitted curve.

| SMILES | Potency |
| --- | --- |
| COC(=O)c1c(C)[nH]c(C(=O)/C=C/c2cccc(Cl)c2)c1C | inconclusive [activator, full curve, poor fit] |
| COc1cc(C(=O)n2cnc3ccccc32)c([N+](=O)[O-])cc1OC | inconclusive [activator, full curve, poor fit] |
| O=C(CSc1nnc(CNC(=O)c2c(F)cccc2F)o1)Nc1ccc2c(c1)OCCO2 | inconclusive [activator, partial curve, poor fit] |
| C=CCn1c(NCc2ccc(OC)cc2)nc2ccccc21 | inconclusive [activator, single point] |
| O=C1CC(c2ccco2)c2ccc3ccccc3c2N1 (stereo not given) | inconclusive [activator, single point] |
| COc1cccc(/C=C/C(=O)OCC(=O)c2ccccc2)c1OC | inconclusive [activator, partial curve, poor fit] |
| O=[N+]([O-])c1cnc(Nc2ccc(Cl)cn2)c([N+](=O)[O-])c1 | inconclusive [activator, single point] |
| O=C(Nc1ccc2cn[nH]c2c1)c1ccccc1F | inconclusive [activator, partial curve, poor fit] |
| Cc1ccc(NC(=O)CCCCCN2C(=O)[C@@H]3Cc4ccccc4CN3C2=O)c(Cl)c1 | inactive |
| N#Cc1sc2nc(-c3cccs3)cc(-c3ccc(Cl)cc3)c2c1N | inactive |
| CN(C)N=Nc1nc2c(c(=O)n(C)c(=O)n2C)n1CC1CO1 (stereo not given) | inactive |
| O=C(O)c1ccc(N/N=C/c2ccc(-c3ccc(Br)cc3)o2)cc1 | inconclusive [activator, full curve, poor fit] |
| CC(C)Cc1cc(C(=O)Nc2sc3c(c2C#N)CCCC3)no1 | inconclusive [activator, partial curve, poor fit] |
| CCc1nc(SCc2ccc(Cl)cc2)n[nH]1 | inactive |
| CC1(C)COC(/C=C/c2ccc([N+](=O)[O-])cc2)=N1 | inconclusive [activator, partial curve, poor fit] |
| O=C(Nc1ccc2c(c1)OCO2)c1ccc(Cl)s1 | inconclusive [activator, partial curve, poor fit] |
| COc1ccccc1N1C(=O)c2ccc(C(=O)Nc3ccc(C(=O)O)cc3)cc2C1=O | inactive |
| NC(CSS(=O)(=O)O)=NCCC12CC3CC(CC(O)(C3)C1)C2 | inconclusive [activator, partial curve, poor fit] |
| N#CCCCSc1ncccc1-c1nc2ccccc2[nH]1 | inconclusive [activator, single point] |
| COc1cc2c(cc1OC)CN(c1ccc3ccccc3n1)CC2 | inconclusive [activator, partial curve, poor fit] |
| O=C(/C=C/Nc1ccc(F)c(F)c1)c1cccs1 | inconclusive [activator, partial curve, poor fit] |
| N#CC1=C(N)Oc2cc(O)ccc2C1c1cccs1 (stereo not given) | inactive |

| SMILES | Potency |
| --- | --- |
| Cn1c(CSc2nc3ccccc3s2)nc2ccccc21 | inconclusive [activator, partial curve, poor fit] |
| CCc1ccc(-c2nc(CSCC(=O)NC3CC3)c(C)o2)cc1 | inactive |
| Cc1ccc(NC(=O)c2cnc3ccccc3n2)cc1C | inconclusive [activator, partial curve, poor fit] |
| Cc1sc2nc(CSC(C)C(=O)Nc3ccccn3)[nH]c(=O)c2c1C (stereo not given) | inconclusive [activator, full curve, poor fit] |
| O=C(NCCc1ccc2c(c1)OCO2)C1CCN(S(=O)(=O)c2ccc(Cl)cc2)CC1 | inconclusive [activator, single point] |
| Cc1nn(Cc2ccc(C(=O)N3c4ccc(F)cc4CCC3C)o2)c(C)c1Br (stereo not given) | inconclusive [activator, full curve, poor fit] |
| N#Cc1cnc(SCC(=O)c2ccccc2)nc1N | inconclusive [activator, partial curve, poor fit] |
| CCOc1ccc(S(=O)(=O)NCCC(=O)Nc2ccncc2)cc1 | inactive |
| O=C(CSc1nncn1-c1ccccc1F)NC1CCCCC1 | inconclusive [activator, partial curve, poor fit] |
| O=C(NC(=S)Nc1ccc(N2CCOCC2)cc1)c1cccc(Cl)c1 | inactive |
| COc1ccc(Br)cc1/C=N/NC(=O)c1cc(OC)c(OC)c(OC)c1 | inactive |
| O=c1oc(-c2ccc(F)cc2)nc2ccsc12 | inconclusive [activator, single point] |
| COc1cnn(-c2ccc(C)cc2)c(=O)c1Br | inconclusive [activator, full curve, poor fit] |
| O=C(OCc1nnc(-c2ccccc2)o1)c1cc(=O)c2ccccc2o1 | inconclusive [activator, partial curve, poor fit] |
| O=C(Nc1ccc(Cl)cc1C(F)(F)F)c1ccccc1 | inconclusive [activator, partial curve, poor fit] |
| COc1ccc(-c2cc3nc(-c4ccccc4)cc(N4CCC5(CC4)OCCO5)n3n2)cc1 | inactive |
| Cc1ccc2c(c1C)OC(=O)CC2c1ccccc1 (stereo not given) | inconclusive [activator, single point] |
| CC1CCN(CCOc2ccc(OCc3ccccc3)cc2)CC1 | inactive |
| CC(=O)Nc1ccc(Nc2c([N+](=O)[O-])cc(S(C)(=O)=O)cc2[N+](=O)[O-])cc1 | inconclusive [activator, single point] |
| COc1cc(CN(C)CC2CCCN(CCc3ccccc3F)C2)cc(Cl)c1OC (stereo not given) | inconclusive [activator, partial curve, poor fit] |
| c1ccc(-c2nccc(-c3ccco3)n2)nc1 | inconclusive [activator, single point] |
| CCCC(=O)Nc1cc(C)c(NC(=O)c2ccco2)cn1 | inconclusive [activator, partial curve, poor fit] |

| SMILES | Potency |
| --- | --- |
| c1ccc(CCc2nc(-c3ccccn3)no2)cc1 | inconclusive [activator, partial curve, poor fit] |
| CC(CCC(C)C(C)(C)C)[C@@H]1CC[C@H]2C3C[C@H](OS(O)(=S)=S)[C@H]4C[C@H](OS(O)(=S)=S)[C@@H](OS(O)(=S)=S)C[C@]4(C)[C@H]3CC[C@]12C (stereo not given in full) (tested in a mixture with another compound) | inactive |
| CCOc1cc(C(=O)Nc2cnccn2)cc(OCC)c1OCC | inactive |
| O=C(NCCc1ccccc1)c1ccccc1NC(=O)C1CC=CCC1C(=O)O (stereo not given) | inconclusive [activator, partial curve, poor fit] |
| O=C(Cc1cccs1)Nc1nc2ccccc2s1 | inconclusive [activator, partial curve, poor fit] |
| CC(C)COCC1CC2(CC(C)(c3csc(N)n3)OC2=O)C(=O)O1 (stereo not given) | inconclusive [activator, single point] |
| Cc1ccc(SCc2ccc(C(=O)Nc3nccs3)o2)cc1 | inconclusive [activator, partial curve, poor fit] |
| O=C(NCc1ccccc1)c1ccc2c(c1)C(=O)N(CC1CCCO1)C2=O (stereo not given) | inactive |
| Cc1ccc(Nc2nnc(SCC(=O)Nc3cccc(S(=O)(=O)NC4=NCCCCC4)c3)s2)cc1 | inconclusive [activator, single point] |
| C/C(=N\Nc1nccnc1Cl)c1ccc(Br)cc1 | inconclusive [activator, partial curve, poor fit] |
| CC(=O)C1CCCN(C(=O)c2ccc3oc(CCc4ccccc4)nc3c2)C1 (stereo not given) | inconclusive [activator, partial curve, poor fit] |
| CNc1nc(SC)n(C)c(=O)c1N=O | inconclusive [activator, single point] |
| COc1ccc(NC(=O)CSc2nc(N)c3cc4c(nc3n2)CCCC4)c(OC)c1 | inconclusive [activator, partial curve] |
| O=C(NCCCn1ccnc1)c1cn(-c2ccccc2)nc1-c1ccc(F)cc1 | inconclusive [activator, single point] |
| Cc1ccnc(NC(=O)c2ccc(Cl)c([N+](=O)[O-])c2)c1 | inconclusive [activator, partial curve, poor fit] |
| O=C(Nc1nnc(CCc2ccccc2)s1)C1CCCO1 (stereo not given) | inconclusive [activator, single point] |
| O=C(Nc1ccc(Cl)c(Cl)c1)c1ccccc1 | inconclusive [activator, partial curve, poor fit] |
| CCCC(=O)NC(c1ccco1)c1cc(Cl)c2cccnc2c1O (stereo not given) | inconclusive [activator, partial curve, poor fit] |
| O=C(Nc1cccnc1)c1cc(-c2ccc3c(c2)OCO3)on1 | inconclusive [activator, partial curve, poor fit] |
| CCCCOC(=O)c1ccc(NC(C)=O)cc1 | inconclusive [activator, partial curve, poor fit] |
| Clc1ccc(Nc2nc(-c3cccs3)cs2)nc1 | inconclusive [activator, full curve, poor fit] |
